We go through 83 variants from the RNAGym collection of RNA variant scans (doi:10.1093/nar/gkz1192).

Read counts are not given, so values of variants with three or more changes are uncertain.

To fix the notation:
B1: CPEB3 Ribozyme (parent)
chain: UAACAGGGGGCCACAGCAGAAGCGUUCACGUCGCAGCCCCUGUCAGAUUCUGGUGAAUCUGCGAAUUCUGCUGUAUAUCUC

Variants of B1 are the subject of the data set. The experiment in a line: self-cleavage, relative activity (ratio to wild type); higher = more cleavage; in vitro, sequencing. In a few lines: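 After error-prone PCR and barcoding, CPEB3 ribozyme mutant libraries were transcribed with T7 RNA polymerase at 37°C for 5 hours, then given 15 min with DNase I before an EDTA stop, and they cleaved during both steps. Reverse transcription with template switching preceded Illumina sequencing. Relative activity divides a variant's cleaved/total read fraction by the unmutated ribozyme's. At least 5 reads were required per variant, and three batches were averaged.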
Regarding U26A U51A U78C, the self-cleavage stood at 0.68.
With U26C C29U A35U A56G U60C, the self-cleavage is 0.11.
Under U26A U51A U66C stands 0.17; under U26C C34U U48C U49C A64U, 0.08; under U26C A45U C71U, 0.25.
As for U26A U41C C59A, the figure is 0.09; as for U26C A35U A75U, 0.25; as for U26A U31A C37A U49C A57G U58C, 0.14.
Under U26C A45G A57G stands 0.33.
Regarding U26A C40U U41A, the self-cleavage turned out to be 0.31.
As for U26C C40A A45C U76C, the figure is 0.06; as for U26C G52C A64G, 0.09.
U26C A56C A77G: the self-cleavage was determined as 0.21.
Take U26C G33U U41C G53C U69A U72C: the self-cleavage turned out to be 0.06.
Under U26A G33C G52A stands 0.14; under U26A U31C A45U, 0.34.
As for U26C C27A U69A U72C, the figure is 0.27; as for U26A U54C U66C, 0.14; as for U26C A28G U78C, 0.18.
Under U26C G33A U66C stands 0.16; under U26C A47G U69A A75G, 0.11.
Regarding U26C G46A A57G, the self-cleavage amounted to 0.07.
Under U26C A45G U54A stands 0.21; under U26C A28G A35G A45C, 0.32; under U26A U60A U66C, 0.29.
As for U26C A47U U60C C62A C71U, the figure is 0.05.
As for U26C A28G U48C G73C, the figure is 0.24.
In the case of U26C A47U A64U U78A, the self-cleavage is 0.21.
As for U26A U41A A57G, the figure is 0.16; as for U26C A64G U78C, 0.27.
As for U26C C39U A64G, the figure is 0.22; as for U26C C29A U69A, 0.19.
As to U26A U60C U69C, the self-cleavage is 0.22.
Turning to U26A G46A A64U U76C, the self-cleavage is 0.14.
Turning to U26C A35U U51C U60C, the self-cleavage amounted to 0.12.
Under U26C C68G U72C stands 0.14; under U26C A45U A65G, 0.16; under U26C C29A U58A U74C U80C, 0.21.
As for U26C C37A A64U U72A, the figure is 0.08; as for U26C A35G A64G, 0.82.
For the variant U26C A64G U69A U74A, the self-cleavage was 0.14.
As for U26C U31A A35G A57G G61A, the figure is 0.21; as for U26C A35G U41C, 0.64; as for U26C A28C C38U A56G A64G U72A, 0.11.
In the case of U26C A35U A45G A77G U80A, the self-cleavage amounted to 0.26.
Regarding U26C A75U U80C, the self-cleavage was 0.42.
As to U26C A28G U49A U54C U76G, the self-cleavage was determined as 0.09.
As for U26C A28G A57G U78C, the figure is 0.22; as for U26C A28U U48C U54C U72G, 0.16.
Under U26C A28G U31A A65U stands 0.06; under U26C U31C A57G U69A, 0.13; under U26C G33C A75G, 0.08.
Under U26C A35U U67C U69A U76C stands 0.11; under U26C A28U U60C U78C, 0.18; under U26C A35U U43C U54C A64U, 0.16.
Regarding U26A U51C A57G, the self-cleavage stood at 0.74.
Under U26C C29G A35C C39U stands 0.19.
As for U26A U43C U49C, the figure is 0.15.
As for U26A G52U A64G U78C, the figure is 0.72; as for U26A C40U U72A U76C U80G, 0.33; as for U26C G33U U51G U72C, 0.12.
For U26C A47G A56G U60A A65G, the self-cleavage was found to be 0.07.
Under U26A U67C U78C stands 0.29; under U26A U31C U66C U80C, 0.16; under U26C G36C G55A, 0.08.
As for U26A U48C A56C U69C, the figure is 0.11; as for U26A U41G U54C, 0.13.
Under U26C U31A C68A stands 0.14.
In the case of U26C A28U A35G U48C U67G, the self-cleavage stood at 0.21.
With U26A U48A U49A, the self-cleavage worked out at 0.38.
Under U26A U54A A64U A75U stands 0.15; under U26A U48C A56G A77U, 0.28.
As for U26C C27G U78C, the figure is 0.29.
Take U26C A56U A64U: the self-cleavage is 0.16.
Under U26C C27A G33A A45G C62A stands 0.07; under U26C A35G U60C A64G, 0.25.
For U26A U43A U60A, the self-cleavage was 0.13.
As for U26A U48C U60A U72A, the figure is 0.12; as for U26A U43A U54A U60C U67A, 0.14.
Under U26C C40G U48C A65G A75G U80C stands 0.05.
In the case of U26C A35U U43C A56G U60A A77U, the self-cleavage turned out to be 0.07.
In the case of U26A U41A U72A, the self-cleavage turned out to be 0.13.
For the variant U26C A47G U48C A56U U58C, the self-cleavage worked out at 0.13.
